Measured values taken from publication PMC12136788.
The list shows a part of the results.

T1: UNK ZnF1-3 (human, UniProt Q9C0B0 31-174)
T1 sequence: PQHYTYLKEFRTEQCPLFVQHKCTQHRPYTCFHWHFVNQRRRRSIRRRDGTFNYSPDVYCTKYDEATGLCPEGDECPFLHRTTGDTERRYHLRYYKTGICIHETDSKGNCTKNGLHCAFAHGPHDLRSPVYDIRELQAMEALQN

B1: 45663463_45665008_1985_CDS_ENSMUSG00000020598_ENSMUST00000020939|mouse|control|control (ssRNA)
RNA: GGGAGUUCUACAGUCCGACGAUCAUUAUCAUGCAAAACAUAAAUGUCUUCAUGAAGAGCGCUUCCUUUAGUGCCUUUAAACCACUCAAUGGUAGGCAUAGGAGAUCCAAAGAAGGCACAAUCUAGCAAAGCAGGCCUGUUUGCCAACAGAGGAUUGAGCAUCA
B2: chr10:59412704:59412705:-_ENSMUSG00000020108_ENSMUST00000020308|mus_hu|FALSE|FALSE (ssRNA)
RNA: GGGAGUUCUACAGUCCGACGAUCGCUUAAACGCAGCUGCCAGGUGUAAUUUUUCAAGUGUCAAAGAUCCCAAGUGAUCCCUGACACCCACCCCUUCCUACUCUUACAUUCAUGCGUCUGUAAGAUAGCUGCCUACAACAGGUCCAACAGAGGAUUGAGCAUCA
B3: chr3:138113954:138113955:+_ENSMUSG00000028138_ENSMUST00000005964|mus_mus|motif|central (ssRNA)
RNA: GGGAGUUCUACAGUCCGACGAUCCGAAGGAUCGAUUUUAGCAACAGAGAUGUCAGCCACAACUGUGUACUCGGAAAAUGUGCGGGUCCCCAUGAAGUGAAAAACAGACUUUCCUUUGCAGGUAAAUCUGCUAGUCCCAUCUGGCAACAGAGGAUUGAGCAUCA
B4: chr12:85022504:85022505:+_ENSMUSG00000010608_ENSMUST00000048155|mus_hu|motif|central (ssRNA)
RNA: GGGAGUUCUACAGUCCGACGAUCCACAAGACCAAUUUUCUUGGCUUCUGUUUCAUAUAUCAAUAAUCUCCACAUUUUGACGGUAAAAACUUCUGCUUCUUCAUCAAGUACCAUGGCAACAUCAUCUAAAAUGCUCUGGGGUGACAACAGAGGAUUGAGCAUCA
B5: chr1:54681892:54681893:+_ENSG00000116221_ENST00000360840|hu_mus|FALSE|FALSE (ssRNA)
RNA: GGGAGUUCUACAGUCCGACGAUCCCAUACCAAAUUCUUGACGCCCUCGCUAGAAGCCAGAUCUGUGGUGUUCAACUGCAGCACCAGGAACUGGAAGACACGGCCAUCAGUGCCCACGCUCUGCACGACUAUUGGCUGCUCCAACAACAGAGGAUUGAGCAUCA
B6: chr2:121258011:121258012:+_ENSMUSG00000027248_ENSMUST00000028683|mus_mus|motif|central (ssRNA)
RNA: GGGAGUUCUACAGUCCGACGAUCCUUGCCUUGUAUCAAAUCUUUAUUAUCUUCCGUCAUAUGAGGACAGAGACCAAAAAUGCGGUCCUGAAUAAAUUUCUUGAUCUUGCCACUGGUCAUUUUCUUUUCAGUAUAUGCCACAGUCAACAGAGGAUUGAGCAUCA
B7: chr5:132270174:132270175:-_ENSG00000072364_ENST00000265343|hu_hu|FALSE|FALSE (ssRNA)
RNA: GGGAGUUCUACAGUCCGACGAUCAGAAUCCCAGUUUGCAUCAGGGUCCCGAGGUGAUUUGGAGCGUUGAUGUUCCUUGCUAUGGUGAUCAUUCCCAUGAGACCUGGAAUGACUAGAGUUUAAUGAAGAAACAGCCUGGGGUUUCAACAGAGGAUUGAGCAUCA
B8: chr6:36694466:36694467:-_ENSMUSG00000029838_ENSMUST00000101534|mus_hu|FALSE|FALSE (ssRNA)
RNA: GGGAGUUCUACAGUCCGACGAUCUUCAGCAGUAUCCACAGCUGCCAGUAUGAAAAUGAAUGCCAAGAAGGCAGCUGCAAAUUUUCGACGCUGCUGCUGGUACUGUUGAGCCUGCAUUUUUGAGUUGGAAACGUCCUCUCUGGCCAACAGAGGAUUGAGCAUCA
B9: chr9:106387587:106387588:+_ENSMUSG00000041506_ENSMUST00000047721|mus_mus|FALSE|FALSE (ssRNA)
RNA: GGGAGUUCUACAGUCCGACGAUCGCGGAGUGGGAUGAUGCAGACUGAGUUCCGGGCCUCUUUGAUCCUCCACCACCGGCCAAGCCUGUGCUCCUGUCCCACGCCUGCCACCAAGAAGUCCCCAGCACUGGAGAACUUGAGGCUCAACAGAGGAUUGAGCAUCA
B10: chr10:128108517:128108518:-_ENSMUSG00000049858_ENSMUST00000054764|mus_hu|FALSE|FALSE (ssRNA)
RNA: GGGAGUUCUACAGUCCGACGAUCAAAGUUGUGCAAGUCAUCCAGGGAAAGAGACAGUGACUGACCCCCAGGUGCUCCUACUACGUGUAAGCGAUAGGUGUCUGGAUCCAGGUUAGGUACAGGCAGAUGGUUCCGGGUGAAGAACAACAGAGGAUUGAGCAUCA
B11: chr15:42709458:42709459:-_ENSG00000103994_ENST00000263805|hu_mus|motif|central (ssRNA)
RNA: GGGAGUUCUACAGUCCGACGAUCGGAGGACAGAUAGGGGCCUGGAGAAGGACAGUGAACGGCCCAUGGGAGAAUUCUUCACGGAGGACUUCCCAACGUGGGAGGCAAAAAACUUCAUGAAUCUAUUUUGCUGUCAUCUUCAGCCAACAGAGGAUUGAGCAUCA
B12: chr11:47650564:47650565:-_ENSG00000109919_ENST00000530428|hu_hu|FALSE|FALSE (ssRNA)
RNA: GGGAGUUCUACAGUCCGACGAUCAUAGGUAUUGACGAGGUAGGCCAGUGAGUUACACAGCCACAAAGAAAGGAUGUCACCUAGAAGGCGAGGAACAAGACCCGCGAAAAAUCCUAGAAUGCCCUCUUCCCGAUAGAUGGUUAUCAACAGAGGAUUGAGCAUCA
B13: chr7:141438946:141438947:+_ENSG00000106028_ENST00000265304|hu_mus|hu_hu_hu_mus_True|38_98 (ssRNA)
RNA: GGGAGUUCUACAGUCCGACGAUCGACGAAAUACCUGACAGGUCUUCCUUCGAAACAUGGCUUCUGUUUUUCUUACAACCUAAUCUUUAGGCUUUUCCUGACGAUCUGAAAGAAAAGAGAAAAAUGAUAAAUCAAGAAACUACACAACAGAGGAUUGAGCAUCA
B14: chr2:202488911:202488912:-_ENSG00000155755_ENST00000286196|hu_mus|hu_hu_hu_mus_False|38_38 (ssRNA)
RNA: GGGAGUUCUACAGUCCGACGAUCAUUGAAACAUUUUUCAUAAUCUCCAGUAGCAUUUCAGCAUUAUGUAACAAAAGCUCAAUUGUAAAUACAUGUAUAUACAUCUUAUACACUUAAAAACACGAGUGGGGAGCGCAGGCGCCACAACAGAGGAUUGAGCAUCA
B15: chr9:95013113:95013114:-_ENSG00000196305_ENST00000443024|hu_hu|hu_hu_hu_mus_False|78_88 (ssRNA)
RNA: GGGAGUUCUACAGUCCGACGAUCCUCAGUCAGAAAGGGCGUGUAAGGAGCCAUAAGUCUGCAAAGAGAAAGCAGGACACUGAACAGUGUCUCCAGAGCCAUGACACAGUCUUCCACCCCACUCUCACCCUUUAACCUCCUCCUCAACAGAGGAUUGAGCAUCA
B16: chr15:100647222:100647223:+_ENSMUSG00000023032_ENSMUST00000023776|mus_mus|motif|central (ssRNA)
RNA: GGGAGUUCUACAGUCCGACGAUCGGGCCAAAAAACUCAUGAUAGUUUUGGAACAUAGAAAAUCACACAUAUACUUUUAAACGGAGUAUCCAAAGUGAUGCCACCGCUUACAGCUCAUUUCUUCGUGUGGCUUUUACACCUGAGCAACAGAGGAUUGAGCAUCA
B17: 63459772_63459892_11392_CDS_ENSMUSG00000030451_ENSMUST00000076226|mouse|control|control (ssRNA)
RNA: GGGAGUUCUACAGUCCGACGAUCCGCAGCCAGAGAGGCAGCAAGGCGAGGGACGAUGCUUCUGUUGGAGGUGAGAUUGAGUCGGAAGUCCAAGAGACAGGUCACCAGGUCCAUGGAUGGACAUGAGAGGACACAGCGAUCCGACAACAGAGGAUUGAGCAUCA
B18: chr1:168330043:168330044:-_ENSMUSG00000040596_ENSMUST00000169324|mus_mus|FALSE|FALSE (ssRNA)
RNA: GGGAGUUCUACAGUCCGACGAUCCUUGGCAGCCUGACAGUUGUUGGUGCUCUCGGCGUACUCCACCACCAUCAGCUUGAACCCUGCAUCAUAACUGCGGCGCAUGCCACGACUGAACUGAAACUUGCUCGCCAAGUCGUCAGCCAACAGAGGAUUGAGCAUCA
B19: chr2:78712580:78712581:+_ENSMUSG00000027011_ENSMUST00000028398|mus_mus|FALSE|FALSE (ssRNA)
RNA: GGGAGUUCUACAGUCCGACGAUCGUUAGGAGGAGGAUCAAGGGUUAUCUCUGCUAGCUCCUUCUGAAUUCUUUUAGCACUAGUGGAUAACUUAGCAGUCGUUUUGCUAGAGAGUUUGGUGUUUUUCUUCUGCUGGGUGGCAGACAACAGAGGAUUGAGCAUCA
B20: 23956996_23957116_5964_CDS_ENSMUSG00000039218_ENSMUST00000088621|mouse|control|control (ssRNA)
RNA: GGGAGUUCUACAGUCCGACGAUCCCGCUUGCCUCGAGCUGCCCUAGGAGUACGAGACCUAGAACGGCGGCGGAUAGCAAGUGGUGAGCGGCUUCGAGAGCGCUUGCGUGGCAACAGUGGUGUCCGAGACCUAGAUCGUCUUCGCAACAGAGGAUUGAGCAUCA
B21: chr6:41757443:41757444:+_ENSG00000214736_ENST00000398881|hu_hu|FALSE|FALSE (ssRNA)
RNA: GGGAGUUCUACAGUCCGACGAUCAGCCUGUCUGCUGACCAGAGAAUGGAAUUCUGCGUGGACUCAAGGAACAAAAGGAAACUAGGCAGGGAAGGGGAAGAAAAGUGCCCAUCUGAAUCAAACUUCAGCUGCCAUCAGGGCACACAACAGAGGAUUGAGCAUCA
B22: chr10:34018390:34018391:+_ENSMUSG00000039485_ENSMUST00000047935|mus_mus|FALSE|FALSE (ssRNA)
RNA: GGGAGUUCUACAGUCCGACGAUCGCCCAUCAGAUAGUAUUGUAGGGGAUUGGACCACAGCUCCCCUUUGAUAAUUUCAGCUAUUCUGUCGAAUUCUAGGAGGCUGUGGUCUGAGAACCAGUUGAAGAAACUGGGAAUCGUGUUCAACAGAGGAUUGAGCAUCA

Each binder was assayed against T1, UNK ZnF1-3 (assay: nsRBNS (natural sequence RNA bind-n-seq); RBNS binding buffer (assumed for nsRBNS): 25 mM Tris pH 7.5, 150 mM KCl, 3 mM MgCl2, 0.01% Triton X-100, 500 ug/ml BSA, 20 U/ml SUPERase-In, 4 C; UNK is unkempt and MSI1 is Musashi-1; names of the RNAs are library labels; protein concentration not given here; high values mean tight binding).

| Binder | binding signal |
| --- | --- |
| B1 | 0.868 enrichment R |
| B2 | 0.745 enrichment R |
| B3 | 0.894 enrichment R |
| B4 | 1.24 enrichment R |
| B5 | 1.03 enrichment R |
| B6 | 1.35 enrichment R |
| B7 | 1.05 enrichment R |
| B8 | 1.09 enrichment R |
| B9 | 1 enrichment R |
| B10 | 1.54 enrichment R |
| B11 | 1.52 enrichment R |
| B12 | 1.32 enrichment R |
| B13 | 0.842 enrichment R |
| B14 | 0.975 enrichment R |
| B15 | 1.34 enrichment R |
| B16 | 0.905 enrichment R |
| B17 | 1.51 enrichment R |
| B18 | 0.671 enrichment R |
| B19 | 0.752 enrichment R |
| B20 | 0.783 enrichment R |
| B21 | 1.96 enrichment R |
| B22 | 0.771 enrichment R |
